The whole screen tested about 310,000 compounds, of which about 14,000 (4.5%) showed an effect of 50% or more. Effects have a minus sign here. The list shows a part of the results.
Each molecule was assayed against human ether-à-go-go-related gene (hERG) potassium channel (human, UniProt Q12809) (assay: primary screen, population patch clamp on CHO cells stably expressing hERG).
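Also: peak tail current of the secondary pulse compared with the same well before compound.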

Chain of human ether-à-go-go-related gene (hERG) potassium channel (Q12809 whole entry, looked up): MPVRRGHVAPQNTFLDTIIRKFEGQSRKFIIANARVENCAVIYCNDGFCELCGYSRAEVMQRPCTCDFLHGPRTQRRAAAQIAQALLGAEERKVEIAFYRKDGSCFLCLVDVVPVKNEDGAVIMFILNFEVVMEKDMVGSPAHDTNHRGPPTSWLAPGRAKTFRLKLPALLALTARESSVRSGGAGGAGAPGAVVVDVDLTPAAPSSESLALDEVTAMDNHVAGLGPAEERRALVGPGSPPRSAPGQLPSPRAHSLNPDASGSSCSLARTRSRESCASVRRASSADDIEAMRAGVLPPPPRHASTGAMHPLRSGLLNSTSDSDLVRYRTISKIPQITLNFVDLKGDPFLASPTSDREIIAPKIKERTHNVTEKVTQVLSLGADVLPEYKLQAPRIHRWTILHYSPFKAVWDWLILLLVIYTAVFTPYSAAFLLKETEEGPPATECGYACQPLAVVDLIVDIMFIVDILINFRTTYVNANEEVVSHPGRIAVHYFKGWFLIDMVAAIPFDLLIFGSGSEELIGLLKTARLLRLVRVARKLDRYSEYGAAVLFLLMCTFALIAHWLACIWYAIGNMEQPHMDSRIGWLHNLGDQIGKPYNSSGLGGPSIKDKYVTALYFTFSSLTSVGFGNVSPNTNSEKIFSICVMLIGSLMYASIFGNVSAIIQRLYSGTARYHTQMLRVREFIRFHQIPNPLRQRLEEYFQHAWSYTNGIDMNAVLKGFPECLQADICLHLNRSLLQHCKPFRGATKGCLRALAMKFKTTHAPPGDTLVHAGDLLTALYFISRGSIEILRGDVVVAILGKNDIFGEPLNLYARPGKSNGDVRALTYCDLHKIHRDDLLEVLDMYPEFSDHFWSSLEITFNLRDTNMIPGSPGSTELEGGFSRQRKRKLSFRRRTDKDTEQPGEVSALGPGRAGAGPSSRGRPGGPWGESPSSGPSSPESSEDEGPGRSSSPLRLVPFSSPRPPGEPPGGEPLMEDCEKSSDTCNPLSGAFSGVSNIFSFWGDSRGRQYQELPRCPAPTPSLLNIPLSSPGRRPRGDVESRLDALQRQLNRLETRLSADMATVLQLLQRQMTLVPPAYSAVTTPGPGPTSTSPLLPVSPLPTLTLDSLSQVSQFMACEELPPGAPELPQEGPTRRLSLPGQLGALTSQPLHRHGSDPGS

Point of comparison: `O=C1/C(=C/c2ccc(F)cc2)SC(=S)N1NS(=O)(=O)c1ccccc1`, “hERG current change (%, negative = inhibition) at 10uM” value 9.56%. Against it:
- CCCCCSc1nnc(N)s1 — higher, 10.7%
- CCCC1=Nc2cc(C(=O)N3CCC(C(N)=O)CC3)ccc2Sc2ccccc21 — lower, 4.75%
- COc1ccc(C2C(C#N)=C(N)N(c3sc4c(c3C#N)CCCC4)C3=C2C(=O)CC(C)(C)C3)cc1 (stereo not shown) — lower, -2.99%
- COc1nc2c(c(-c3cc(Br)cs3)c1C#N)Cc1ccccc1-2 — higher, 22.5%
- Cc1ccc(C)c2[nH]c(=O)c(CN(Cc3cccnc3)C(=S)NCc3ccco3)cc12 — lower, -61.1%
- CN(Cc1c(F)cccc1Cl)C(=O)CNC(=O)c1sc2ccccc2c1Cl — lower, 3.12%
- O=C(COC(=O)C1CC(O)CN1S(=O)(=O)c1ccc(Cl)cc1)c1cccc(Cl)c1 (stereo not shown) — lower, 2.97%
- COc1ccc(/C=C/C(=O)N/C(=C\c2ccco2)C(=O)NCCc2nc3ccccc3[nH]2)cc1 — lower, -72.7%
- O=C(CC1C(=O)NCCN1Cc1ccc(-c2ccccc2)cc1)NCCCn1ccnc1 (stereo not shown) — higher, 14%
- COc1ccc(/C=N/Nc2nc(-c3ccc(Cl)cc3)cc(C(F)(F)F)n2)cc1OC — lower, 2.99%
- COC(=O)C1=C(c2ccc(S(C)(=O)=O)cc2)C[C@@H]2CC[C@H]1N2C(=O)N1CCOCC1 — lower, 9.27%
- CC(C)(C)N1C(=O)[C@H]2[C@@H](c3ccc(Br)cc3)N3C(=O)N(c4cccc(F)c4)C(=O)[C@@]3(C)[C@H]2C1=O — lower, 8.15%
- CC(OC(=O)c1ccccc1N1C(=O)C2C3CCC(C3)C2C1=O)C(=O)c1ccccc1 (stereo not shown) — lower, 7.12%
- Cc1ccc(CONC(=O)c2ccc(Cl)cc2)cc1 — lower, -1.6%
- CCCn1c(N)c(C(=O)CSc2nc3ncc(Cl)cc3[nH]2)c(=O)[nH]c1=O — lower, 9.39%
- COc1cc(CCC(=O)N2CCN(c3ccccc3)CC2)cc(OC)c1OC — lower, -58.5%
- C#CCOCCOCCOCCNc1nc(N2CCOCC2)nc(N2CCN(C(=O)[C@H](CCC(=O)O)n3cc(C(N)Cc4ccc(O)cc4)nn3)CC2)n1.Cl (stereo partly shown) — lower, -13.9%
- COc1ccc(OC)c(/C=N/NC(=O)c2cc[n+](CC(=O)c3ccccc3)cc2)c1.[Br-] — lower, -5.33%
- CCNS(=O)(=O)c1ccc(NC(=O)c2cc(C(F)(F)F)nn2C)cc1 — lower, -16.6%
- O=C(O)CCCCCNCc1c(Cl)cccc1Cl — lower, 2.91%
- COC(=O)C1=C(C)N(C)C(=O)NC1c1ccc(O)c(Cl)c1 (stereo not shown) — lower, -19.2%
- CCCn1c(SCC(=O)NCCc2ccccc2)nnc1-c1ccccn1 — lower, -38%
- CCOC(=O)C1(CC2CCCCO2)CCN(C(=O)Nc2ccccc2)CC1 (stereo not shown) — higher, 12%
- Cc1ccccc1OC(=O)Cn1c(C(F)(F)F)nc2ccccc21 — lower, 3.95%
- O=C(Cn1ncc(N2CCCC2)c(Br)c1=O)c1ccc(Cl)cc1 — lower, -23.1%
- CCCc1cc(=O)[nH]c(Nc2ccc(O)cc2)n1 — lower, 1.84%
- O=C(Nn1cnnc1)c1ccc(Cl)c([N+](=O)[O-])c1 — lower, 1.32%
- Cc1cccc(NS(=O)(=O)c2cc(C(=O)N3CCN(C)CC3)ccc2C)c1 — lower, -12.1%
- CCCCc1ccc(NC(=O)NCc2cccnc2)cc1 — lower, -41.4%
- CN(CC(=O)O)S(=O)(=O)c1ccc2[nH]c(=O)c(=O)[nH]c2c1 — lower, -0.277%
- O=C(Nc1ccc2oc(-c3ccccc3)nc2c1)C1CCCO1 (stereo not shown) — lower, 4.31%
- O=C(NCC(=O)N(Cc1ccco1)C(C(=O)NC1CCCC1)c1ccncc1)c1cccs1 (stereo not shown) — lower, -0.29%
- COc1ccc(NC(=O)Cc2nnc(N)s2)cc1 — higher, 18.5%
- Cc1nn(C(C)C(=O)NCC2CCCO2)c(=O)c2cc3occc3n12 (stereo not shown) — lower, -9.93%
- Nc1ncnc(N2CCc3ccccc32)c1[N+](=O)[O-] — lower, 6.2%
- COc1cccc(C(=O)OC(C)C(=O)NCC2CCCCC2)c1 (stereo not shown) — lower, -29.3%
- COc1ccc(-c2cc(C(=O)N3CC4(C)CC3CC(C)(C)C4)no2)cc1 (stereo not shown) — higher, 15.8%
- CC(=O)CSc1nc2c(c(=O)[nH]c(=O)n2C)n1Cc1cccc(Br)c1 — lower, -24.6%
- COC(=O)c1c(C)nc(C)c(C(=O)OC)c1-c1ccsc1 — lower, 0.663%
- COc1ccc(Cc2noc(COc3ccc(Cl)cc3)n2)cc1 — lower, 5.95%
- O=[N+]([O-])c1ccc(-c2csc3[n+]2CCS3)cc1.[Br-] — lower, -11.9%
- N#CCc1ccc(NC(=O)c2ccccc2C(=O)Nc2ccc(CC#N)cc2)cc1 — lower, -14.8%
- N/C(=N\OC(=O)c1ccc(F)cc1)c1nonc1N — lower, 5.87%
- COc1ccc(CNC(=O)/C=C/C(=O)O)cc1 — lower, -19%
- COc1ccc(CNS(=O)(=O)c2ccc3c(c2)NC(=O)C(C)S3)cc1 (stereo not shown) — lower, 2.33%
- Cc1cccc(C)c1NC(=O)CSc1nnc(NC(=O)c2ccccc2C(=O)O)s1 — higher, 9.74%
- NS(=O)(=O)c1ccc(CCNC(=O)c2cc(-c3ccccn3)nc3ccc(Br)cc23)cc1 — lower, 9.39%
- CC(=O)c1c(C)[nH]c(C(=O)NC(C)c2ccccc2)c1C (stereo not shown) — lower, 0.331%
- CCc1ccc(CN2CCC(Oc3ccc(C(=O)NCc4ccccn4)cc3)CC2)o1 — lower, -12.9%
- CC(=O)c1ccn(S(=O)(=O)c2ccc(Cl)cc2)c1 — lower, 6.57%
- COc1ccccc1NC(=O)CCSc1nc(C)cs1 — higher, 12.8%
- CCCN1CCN(C(=O)c2ccccc2-c2nc3ccccc3s2)CC1 — lower, -31.5%
- CCCCC(=O)NS(=O)(=O)c1ccc(NS(C)(=O)=O)cc1 — lower, 5.49%
- CC(=O)c1ccc(Nc2cnn(C34CC5CC(CC(CC(=O)O)(C5)C3)C4)c(=O)c2Cl)cc1 — higher, 18.8%

From article PMC4336329 (PLoS ONE, 2015)
